This is an account of results in publication PMC12820563.

This is one part of the list. The list includes weakly bound sequences.

The test has as its target T1, MBP-FoxP3dN (UniProt Q99JB6).
T1 sequence: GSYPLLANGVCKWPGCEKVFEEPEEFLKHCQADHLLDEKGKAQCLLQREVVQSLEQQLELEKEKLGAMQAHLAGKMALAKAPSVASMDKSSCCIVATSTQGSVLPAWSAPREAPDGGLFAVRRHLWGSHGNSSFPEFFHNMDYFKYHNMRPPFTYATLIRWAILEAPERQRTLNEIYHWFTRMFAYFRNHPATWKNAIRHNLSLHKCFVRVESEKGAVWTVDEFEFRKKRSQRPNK
Kind of test: PD-seq (MBP pull-down with sequencing). The note with it: 20 mM Tris-HCl pH 7.5, 100 mM NaCl, 1.5 mM MgCl2, 0.4 uM protein, 0.1 uM dsDNA library, 30 min, room temperature, amylose pull-down; high values mean tight binding; double strand, one strand shown.
On to “GATGATTGTTCTCCCAGCTGATGAATTTGGTTCATCGAGTAAACAAATTTTCCTAATCTTTCTGTTCAAGCGCCATCTAC”, for which the binding signal (RPM ratio (pull-down/input)) came out at 0.912. Take “GATGATTGTTCTCCCAGCTGATGAATTCCACGGATCGAGTAAACAAATTTTCCTAATCTTTCTGTTCAAGCGCCATCTAC”: the binding signal (RPM ratio (pull-down/input)) was determined as 0.186. For the sequence “GATGATTGTTCTCCCAGCTGATGAATTGGGCCATTCGAGTAAACAAATTTTCCTAATCTTTCTGTTCAAGCGCCATCTAC”, the binding signal (RPM ratio (pull-down/input)) came out at 3.14. For the sequence “GATGATTGTTCTCCCAGCTGATGAATTTCTTGAATCGAGTAAACAAATTTTCCTAATCTTTCTGTTCAAGCGCCATCTAC”, the binding signal (RPM ratio (pull-down/input)) was determined as 0.2.

Consider “GATGATTGTTCTCCCAGCTGATGAATTGGTAACATCGAGTAAACAAATTTTCCTAATCTTTCTGTTCAAGCGCCATCTAC”, for which the binding signal (RPM ratio (pull-down/input)) was 0.838. With “GATGATTGTTCTCCCAGCTGATGAATTTTTCCACTCGAGTAAACAAATTTTCCTAATCTTTCTGTTCAAGCGCCATCTAC”, the binding signal (RPM ratio (pull-down/input)) stood at 0.267.

For “GATGATTGTTCTCCCAGCTGATGAATTTCTACTCTCGAGTAAACAAATTTTCCTAATCTTTCTGTTCAAGCGCCATCTAC”, the binding signal (RPM ratio (pull-down/input)) was found to be 0.251. Consider “GATGATTGTTCTCCCAGCTGATGAATTCCATCTTTCGAGTAAACAAATTTTCCTAATCTTTCTGTTCAAGCGCCATCTAC”, for which the binding signal (RPM ratio (pull-down/input)) came to 0.437. The same measure for “GATGATTGTTCTCCCAGCTGATGAATTTTCAGATTCGAGTAAACAAATTTTCCTAATCTTTCTGTTCAAGCGCCATCTAC”: 0.215; for “GATGATTGTTCTCCCAGCTGATGAATTCGCCTTATCGAGTAAACAAATTTTCCTAATCTTTCTGTTCAAGCGCCATCTAC”: 0.916; for “GATGATTGTTCTCCCAGCTGATGAATTTCGTCGGTCGAGTAAACAAATTTTCCTAATCTTTCTGTTCAAGCGCCATCTAC”: 0.311. For “GATGATTGTTCTCCCAGCTGATGAATTCTAGACGTCGAGTAAACAAATTTTCCTAATCTTTCTGTTCAAGCGCCATCTAC”, the binding signal (RPM ratio (pull-down/input)) was 0.27. With “GATGATTGTTCTCCCAGCTGATGAATTTTAGTAATCGAGTAAACAAATTTTCCTAATCTTTCTGTTCAAGCGCCATCTAC”, the binding signal (RPM ratio (pull-down/input)) came out at 0.756.

As to “GATGATTGTTCTCCCAGCTGATGAATTAAGGCTCTCGAGTAAACAAATTTTCCTAATCTTTCTGTTCAAGCGCCATCTAC”, the binding signal (RPM ratio (pull-down/input)) was 0.551. Take “GATGATTGTTCTCCCAGCTGATGAATTGATCCATTCGAGTAAACAAATTTTCCTAATCTTTCTGTTCAAGCGCCATCTAC”: the binding signal (RPM ratio (pull-down/input)) worked out at 0.376.

Consider “GATGATTGTTCTCCCAGCTGATGAATTCGTGGCATCGAGTAAACAAATTTTCCTAATCTTTCTGTTCAAGCGCCATCTAC”, for which the binding signal (RPM ratio (pull-down/input)) is 1.13. As to “GATGATTGTTCTCCCAGCTGATGAATTACTAGGATCGAGTAAACAAATTTTCCTAATCTTTCTGTTCAAGCGCCATCTAC”, the binding signal (RPM ratio (pull-down/input)) was 0.302.

Regarding “GATGATTGTTCTCCCAGCTGATGAATTTACTATCTCGAGTAAACAAATTTTCCTAATCTTTCTGTTCAAGCGCCATCTAC”, the binding signal (RPM ratio (pull-down/input)) was found to be 0.939. For “GATGATTGTTCTCCCAGCTGATGAATTTCCCGCGTCGAGTAAACAAATTTTCCTAATCTTTCTGTTCAAGCGCCATCTAC”, the binding signal (RPM ratio (pull-down/input)) stood at 0.413. On to “GATGATTGTTCTCCCAGCTGATGAATTTGTGTTATCGAGTAAACAAATTTTCCTAATCTTTCTGTTCAAGCGCCATCTAC”, for which the binding signal (RPM ratio (pull-down/input)) is 5.3.

Take “GATGATTGTTCTCCCAGCTGATGAATTATGGTGGTCGAGTAAACAAATTTTCCTAATCTTTCTGTTCAAGCGCCATCTAC”: the binding signal (RPM ratio (pull-down/input)) turned out to be 0.588. Turning to “GATGATTGTTCTCCCAGCTGATGAATTCTCACATTCGAGTAAACAAATTTTCCTAATCTTTCTGTTCAAGCGCCATCTAC”, the binding signal (RPM ratio (pull-down/input)) stood at 0.361. With “GATGATTGTTCTCCCAGCTGATGAATTGGCTGCTTCGAGTAAACAAATTTTCCTAATCTTTCTGTTCAAGCGCCATCTAC”, the binding signal (RPM ratio (pull-down/input)) amounted to 0.464. In the case of “GATGATTGTTCTCCCAGCTGATGAATTGCTTCCGTCGAGTAAACAAATTTTCCTAATCTTTCTGTTCAAGCGCCATCTAC”, the binding signal (RPM ratio (pull-down/input)) stood at 0.425. As to “GATGATTGTTCTCCCAGCTGATGAATTCCTCCCTTCGAGTAAACAAATTTTCCTAATCTTTCTGTTCAAGCGCCATCTAC”, the binding signal (RPM ratio (pull-down/input)) was 0.203. The same measure for “GATGATTGTTCTCCCAGCTGATGAATTGTAGGATTCGAGTAAACAAATTTTCCTAATCTTTCTGTTCAAGCGCCATCTAC”: 0.436; for “GATGATTGTTCTCCCAGCTGATGAATTGTGTCGATCGAGTAAACAAATTTTCCTAATCTTTCTGTTCAAGCGCCATCTAC”: 0.976. The same measure for “GATGATTGTTCTCCCAGCTGATGAATTTATAGCCTCGAGTAAACAAATTTTCCTAATCTTTCTGTTCAAGCGCCATCTAC”: 1.19; for “GATGATTGTTCTCCCAGCTGATGAATTGTACATCTCGAGTAAACAAATTTTCCTAATCTTTCTGTTCAAGCGCCATCTAC”: 0.829; for “GATGATTGTTCTCCCAGCTGATGAATTTTACGCCTCGAGTAAACAAATTTTCCTAATCTTTCTGTTCAAGCGCCATCTAC”: 0.506. In the case of “GATGATTGTTCTCCCAGCTGATGAATTAGCTTTTTCGAGTAAACAAATTTTCCTAATCTTTCTGTTCAAGCGCCATCTAC”, the binding signal (RPM ratio (pull-down/input)) came out at 2.22.
